Measured values reported in the supplement of paper PMC7826260.
This is one part of the list. The data describe in vitro nicking of single-stranded DNA by Rep domains for 1 h at 37 °C with 3 µM enzyme; only the middle of the 90-letter strands is printed. The score is log2 (uncut reads / reads without enzyme); uncut sequences lie near 0, cut ones below; no hit call is given. Reads are scaled to the total; where an enzyme cuts many sequences, the uncut ones exceed 0.

Experiments:
Assay in all cases: uncleaved DNA left, log2 of reads against the no-enzyme library (log2 ratio); higher = less cleavage (more negative = more Rep cleavage of the k-mer); sequences stand for … in CTCGTCCG…ACCGGAGA
[1] = system: T1, Rep nickase domain of Muscovy duck circovirus
T1 sequence (residues 1-111, tag not shown): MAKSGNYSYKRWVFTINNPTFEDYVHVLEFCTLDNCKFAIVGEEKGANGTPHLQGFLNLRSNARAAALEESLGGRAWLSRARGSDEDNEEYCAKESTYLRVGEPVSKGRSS
Procedure: (§1)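 A pool of 90-nt single-stranded DNAs with seven random bases just before the constant AC of the nick site (name = the seven bases) was cut by 3 µM recombinant His6-SUMO-tagged Rep nickase domain (300 nM DNA, 50 mM HEPES pH 8.0, 50 mM NaCl, 1 mM MnCl2, 1 h, 37 °C, three replicates). Uncut DNA was amplified and sequenced.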

[2] = system: T2, Rep nickase domain of banana bunchy top virus
T2 sequence (residues 1-94, tag not shown): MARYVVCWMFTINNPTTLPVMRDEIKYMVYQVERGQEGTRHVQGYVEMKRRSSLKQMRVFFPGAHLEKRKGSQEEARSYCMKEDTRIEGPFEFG
Procedure: as §1

[3] = system: T3, Rep nickase domain of cabbage leaf curl virus
T3 sequence (residues 1-116, tag not shown): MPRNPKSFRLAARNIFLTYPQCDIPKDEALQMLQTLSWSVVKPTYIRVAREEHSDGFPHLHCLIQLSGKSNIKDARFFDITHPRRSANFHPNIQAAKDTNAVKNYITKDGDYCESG
Procedure: as §1

[4] = system: T4, Rep nickase domain of chickpea chlorotic dwarf virus
T4 sequence (residues 1-124, tag not shown): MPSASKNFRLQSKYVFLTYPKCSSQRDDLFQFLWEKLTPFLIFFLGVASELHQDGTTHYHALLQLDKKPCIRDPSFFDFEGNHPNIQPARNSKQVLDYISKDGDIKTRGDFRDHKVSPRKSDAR
Procedure: as §1

[5] = system: T5, Rep nickase domain of faba bean necrotic yellows virus
T5 sequence (residues 1-98, tag not shown): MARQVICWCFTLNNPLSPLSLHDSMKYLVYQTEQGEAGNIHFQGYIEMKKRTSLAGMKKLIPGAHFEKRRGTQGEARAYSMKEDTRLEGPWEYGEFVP
Procedure: as §1

[6] = system: T6, Rep nickase domain of maize striate mosaic virus
T6 sequence (residues 1-117, tag not shown): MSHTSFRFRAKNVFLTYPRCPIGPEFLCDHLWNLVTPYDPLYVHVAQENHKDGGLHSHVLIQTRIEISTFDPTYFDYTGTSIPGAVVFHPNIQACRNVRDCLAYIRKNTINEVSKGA
Procedure: as §1

[7] = system: T7, Rep nickase domain of porcine circovirus 2
T7 sequence (residues 2-116, tag not shown): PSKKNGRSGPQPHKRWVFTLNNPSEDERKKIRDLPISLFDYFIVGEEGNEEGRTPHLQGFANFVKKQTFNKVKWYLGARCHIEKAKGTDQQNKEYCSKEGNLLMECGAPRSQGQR
Procedure: as §1

[8] = system: T8, Rep nickase domain of tomato yellow leaf curl virus
T8 sequence (residues 1-136, tag not shown): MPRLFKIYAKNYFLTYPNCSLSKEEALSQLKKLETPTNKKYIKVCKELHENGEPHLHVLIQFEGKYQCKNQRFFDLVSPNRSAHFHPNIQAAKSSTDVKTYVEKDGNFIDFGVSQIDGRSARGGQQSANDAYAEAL
Procedure: as §1

[9] = system: T9, Rep nickase domain of wheat dwarf virus
T9 sequence (residues 1-137, tag not shown): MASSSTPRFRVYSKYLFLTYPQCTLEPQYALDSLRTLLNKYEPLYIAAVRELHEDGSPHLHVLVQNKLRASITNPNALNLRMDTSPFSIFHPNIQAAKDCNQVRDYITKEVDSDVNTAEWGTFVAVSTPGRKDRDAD
Procedure: as §1

Sequence	uncleaved DNA left (log2) [1]	uncleaved DNA left (log2) [2]	uncleaved DNA left (log2) [3]	uncleaved DNA left (log2) [4]	uncleaved DNA left (log2) [5]	uncleaved DNA left (log2) [6]	uncleaved DNA left (log2) [7]	uncleaved DNA left (log2) [8]	uncleaved DNA left (log2) [9]
CTCTGTA	-0.152	-0.0889	-0.0869	-0.885	-0.138	-0.708	-0.31	0.0398	-0.0452
CGTCGCT	0.186	-0.0153	-0.323	-0.857	0.0463	-0.733	-0.0636	0.0824	-0.0641
CCAATAC	0.0364	0.137	-0.0548	-0.667	0.0286	-0.777	0.126	0.0632	0.0309
TAACACA	0.0765	0.16	-1.16	-2.81	0.0217	-0.345	0.00239	0.0735	-0.246
GCCGTCT	0.00168	-0.0948	0.0717	-0.539	-0.0785	0.0204	-0.00702	-0.0732	-0.271
GCGGCAG	0.0142	0.0163	0.442	1.16	0.0107	1.5	0.151	-0.0698	0.103
GATACCG	-0.0208	-0.0437	-0.397	-0.00339	-0.00971	-0.611	0.222	-0.079	-0.0285
CATTACC	-0.0766	-0.0482	-0.417	-2.25	0.0139	-0.979	-1.71	0.00164	-0.0905
ACTTATA	-0.206	-0.0813	-0.296	-1.65	-0.0183	-0.759	-0.117	-0.122	0.00636
GGTCGCT	-0.00495	0.0249	0.374	0.671	0.038	0.888	-0.0342	-0.0103	0.0766
AGTTTAT	-0.37	-0.113	0.157	-0.351	-0.0677	-0.0361	-3.54	-0.0473	-0.0205
GTGGTCC	-0.00126	-0.119	0.316	0.808	0.00262	1.85	0.0667	-0.0771	-0.0527
AAGAACC	0.0833	-0.0206	0.155	0.047	0.0832	0.147	-0.125	-0.0463	0.113
AAGTGCA	-0.0175	-0.0455	-0.558	-0.787	-0.0408	-0.876	-2.78	0.036	-0.0687
ACCATAA	0.0698	0.00303	-0.331	-0.344	0.0388	-1.12	0.179	-0.0138	-0.000663
TAATAGG	0.0815	0.0416	-0.0994	0.398	0.0379	0.939	0.12	-0.1	0.0617
GAAGCCA	0.0685	0.0595	0.1	-0.274	0.000496	0.435	-0.067	0.032	0.1
GGCAATA	0.0133	0.0934	0.667	1.36	-0.00773	1.92	0.137	0.0877	0.155
ATTTATC	0.043	0.131	0.224	0.437	0.0519	-0.0418	0.0431	0.128	0.24
TATGTCC	0.00812	-0.127	-0.0452	-0.783	-0.073	-0.551	-0.137	-0.04	-0.0681

Sequence	uncleaved DNA left (log2) [1]	uncleaved DNA left (log2) [2]	uncleaved DNA left (log2) [3]	uncleaved DNA left (log2) [4]	uncleaved DNA left (log2) [5]	uncleaved DNA left (log2) [6]	uncleaved DNA left (log2) [7]	uncleaved DNA left (log2) [8]	uncleaved DNA left (log2) [9]
AAGCGCT	-0.0161	-0.108	-0.208	-0.484	-0.236	-0.134	-2.06	-0.212	-0.0628
TCTTTGT	-0.192	-0.153	-0.194	-0.702	-0.0583	-1.11	-0.824	-0.127	-0.0796
GCTCAAA	-0.0204	-0.00763	0.173	0.595	-0.106	0.375	0.119	0.0568	0.115
ACGGAGT	0.0805	0.14	-0.249	-0.149	-0.0333	-0.558	0.00261	-0.0842	-0.104
TCAACAA	0.0327	0.0608	0.0397	-0.949	0.0856	-0.399	0.0517	0.0999	0.0861
CTACGTA	-0.0891	-0.12	-0.127	-1.42	0.066	-0.602	0.00528	-0.0105	-0.105
CAATACT	-4.36	-3.73	-4.5	-3.96	-1.73	-3.74	-4.48	-3.51	-3.79
AAGGCGC	0.0557	-0.0355	-0.681	-0.506	0.0172	-0.796	0.207	0.0937	-0.105
AAATACA	-0.574	0.0044	-0.882	-2.87	0.00502	-0.902	-1.31	0.0284	-0.211
GATCTAC	0.0746	0.0214	0.279	-0.0671	0.125	1.02	0.203	0.132	0.26
ATTCGGA	0.0422	-0.126	0.117	0.275	0.0557	-0.112	0.103	-0.105	0.0197
CGTTGGT	-0.186	0.143	-0.0773	-0.228	0.0734	-0.62	-0.62	0.238	0.0482
GCGGTCT	0.0545	0.133	0.51	0.917	0.0665	1.65	0.0192	-0.000284	0.0414
GTGTACT	-0.361	-0.0128	0.419	0.808	-0.102	1.95	-2.38	0.122	0.21
CTGCAAC	-0.0697	-0.115	-0.332	-1.12	-0.125	-1.04	-0.29	-0.157	-0.121
GCGGCTA	0.13	0.126	0.287	0.923	0.128	1.74	0.181	0.0401	0.189
AAAGCGG	0.0837	-0.0018	0.321	1.11	0.0786	1.07	0.23	-0.019	0.091
AAACACA	-0.0544	-0.16	-0.38	-2.43	-0.0369	-0.769	-0.119	-0.122	-0.1
GCCAAGC	-0.0302	-0.148	0.175	0.738	-0.087	0.285	0.0303	-0.154	-0.0173
GCATGAT	-0.278	-0.0263	-0.046	0.197	0.099	0.187	-0.92	0.0513	0.0604

Sequence	uncleaved DNA left (log2) [1]	uncleaved DNA left (log2) [2]	uncleaved DNA left (log2) [3]	uncleaved DNA left (log2) [4]	uncleaved DNA left (log2) [5]	uncleaved DNA left (log2) [6]	uncleaved DNA left (log2) [7]	uncleaved DNA left (log2) [8]	uncleaved DNA left (log2) [9]
CAGGTGG	-0.143	-0.0407	-0.335	-0.0423	-0.128	-0.649	0.0712	-0.113	-0.108
CTCCGGG	-0.0708	0.0407	0.392	0.563	-0.0425	0.0672	0.118	0.125	0.065
CGTAAGT	0.0619	0.109	0.0226	-0.215	0.103	-0.661	-0.108	0.125	-0.0332
TTGGCTG	-0.0242	-0.136	-0.00476	0.843	-0.0949	1.16	-0.0323	-0.203	-0.13
ATTCCGG	-0.0627	0.111	0.485	1.39	0.0466	1.54	-0.00765	-0.0254	0.105
CAAGCAA	-0.175	0.0678	-0.0159	0.0963	0.0125	-0.323	0.114	-0.175	0.0377
AGGTTCC	0.00164	0.0109	0.128	0.193	-0.0606	0.633	-0.181	-0.0818	5.98e-05
GCCTAAA	-0.198	-0.0482	0.135	0.375	-0.133	0.205	-0.183	-0.0622	-0.142
CCTATCT	0.0159	-0.0172	-0.201	-2.16	0.033	-0.722	-0.549	-0.0239	0.0345
CGCTCTT	-1.66	-0.204	-0.163	-1.64	0.00719	-0.184	-2.45	-0.00811	-0.142
CGTCGTA	0.0771	-0.0305	-0.0715	-0.398	0.0852	-0.321	-0.0523	0.0873	-0.0518
TTGTGTG	0.0163	-0.0405	-0.742	-0.341	-0.00783	-1.19	0.118	-0.00806	-0.165
ACTCAAT	0.157	0.159	-0.0389	-0.479	0.0629	-0.531	-1.27	0.0544	-0.088
ACAGACA	-0.0375	0.043	0.00532	-1.08	0.149	-0.196	0.144	-0.168	0.00159
ATTCCTG	-0.218	-0.0172	-0.193	-0.101	-0.0578	-0.0781	-0.242	0.00431	-0.029
TGATGGT	-0.33	0.0298	0.238	0.473	0.107	1.4	-0.477	0.0131	0.0124
GGACTTA	0.0459	0.0211	0.69	1.71	-0.112	2.06	0.0569	-0.0165	0.198
GTCGAGG	0.164	0.291	0.507	1.14	0.21	1.95	0.229	0.214	0.237
TGTGGAG	0.163	-0.0274	-0.525	-0.232	0.038	-0.728	0.184	0.114	-0.0615
TGCCGAT	-0.121	-0.0384	-0.0219	0.136	-0.192	0.159	-0.0147	-0.129	-0.0425
